The supplement of paper PMC3334620
In all, about 33,000 sequences were measured (“E-score (-0.5 to 0.5)”: median about -0.043, highest 2% from about 0.37 on). The list shows a part of the results.

These sequences were tested against T1, Upc2 (UniProt Q12151) (assay: PBM E-score (8-mer binding enrichment) (E-score (-0.5 to 0.5)); higher = stronger / more preferred TF binding; most listed sequences are background and not binding sites). Details: protein concentration: 200 nM; construct: GST-full length.
T1 sequence: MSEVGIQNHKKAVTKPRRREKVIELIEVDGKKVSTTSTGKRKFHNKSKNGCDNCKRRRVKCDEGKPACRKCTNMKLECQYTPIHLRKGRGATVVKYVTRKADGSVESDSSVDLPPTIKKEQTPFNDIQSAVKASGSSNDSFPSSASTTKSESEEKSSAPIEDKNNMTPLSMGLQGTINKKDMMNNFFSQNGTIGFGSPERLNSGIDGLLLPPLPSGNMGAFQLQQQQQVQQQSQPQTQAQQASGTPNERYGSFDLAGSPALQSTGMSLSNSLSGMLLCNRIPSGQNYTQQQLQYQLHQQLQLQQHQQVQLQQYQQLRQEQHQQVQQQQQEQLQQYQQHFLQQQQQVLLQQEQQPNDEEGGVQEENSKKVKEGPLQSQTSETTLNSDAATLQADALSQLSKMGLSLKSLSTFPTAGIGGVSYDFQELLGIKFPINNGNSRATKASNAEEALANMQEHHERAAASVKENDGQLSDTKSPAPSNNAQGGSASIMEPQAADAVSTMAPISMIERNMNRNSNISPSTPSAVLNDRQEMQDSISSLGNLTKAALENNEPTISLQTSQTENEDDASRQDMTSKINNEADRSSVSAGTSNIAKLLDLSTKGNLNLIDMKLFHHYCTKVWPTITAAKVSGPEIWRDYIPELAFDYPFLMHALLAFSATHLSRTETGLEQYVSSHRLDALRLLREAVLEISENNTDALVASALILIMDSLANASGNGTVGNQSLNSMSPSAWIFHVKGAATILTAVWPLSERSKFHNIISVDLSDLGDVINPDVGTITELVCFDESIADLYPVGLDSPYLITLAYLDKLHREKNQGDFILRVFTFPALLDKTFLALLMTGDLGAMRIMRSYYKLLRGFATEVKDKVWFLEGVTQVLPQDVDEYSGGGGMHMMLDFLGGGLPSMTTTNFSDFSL
Method in brief: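 Universal all-10-mer Agilent arrays, fresh or stripped once, were converted to double-stranded form by primer extension. GST-tagged yeast transcription factors from PURExpress in vitro transcription/translation, full-length or DNA-binding domain only, were applied at about 100-200 nM and detected with fluorescent anti-GST. After masliner normalisation, the Universal PBM Analysis Suite scored each ungapped eight-base word together with its reverse complement by E-score.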

Sequence | PBM E-score
GTCGTCCA | -0.144
ACATATGA | 0.0385
AGGGTTAG | -0.0409
CGGACTCC | -0.209
AAGACCGG | -0.189
CCTCAGGC | -0.156
ACCCTTAC | -0.0285
CGATAAAA | 0.17
AACCTTGC | -0.22
CTTTCAAC | -0.0326
AAATACAC | 0.107
CAACTGCA | -0.048
CAGCTAGG | -0.352
CACGTCTG | -0.155
ACGTCACA | -0.00504
CGATATAG | 0.157
CGGTGAAC | 0.16
GGGCGACC | -0.263
GCGGAACA | -0.124
ATTATGAC | 0.0106
CGGGACCC | -0.177
CTTGAGGA | -0.276

Sequence | PBM E-score
CTTTGTTA | 0.0474
CACGCTCG | 0.185
AGCGCCCC | -0.276
ACCCGTCA | -0.119
AGTGCAAA | 0.065
GTGAGCAC | -0.201
CAGGTGCA | -0.26
CAACATAA | 0.0635
CAAATCGG | -0.0502
AATGGGAC | -0.328
CACGATCG | 0.125
TATATATA | 0.118
ATGCATGG | -0.0939
AGGGAATA | -0.0671
ACAAGGAC | -0.21
CGTTATTA | 0.181
CTCGTCTC | 0.132
AGACCTCC | -0.202
ACGTACGC | 0.254
CAAGCATC | -0.297
GTAAGTTA | 0.0587
ATCTGGTA | 0.044

Sequence | PBM E-score
CCTACGGA | -0.328
GCCGTTTA | 0.465
CGTTTGTA | 0.355
GAAGTGGC | -0.152
AGGCGCTG | -0.00127
ATGTTCAC | -0.167
CCGACATC | 0.0602
CTCTTCAG | -0.115
CATGCTCC | -0.0889
AGTGCGGG | -0.133
AGAACAGA | -0.129
CTTTTGAC | -0.0731
TGGAAAAA | 0.0868
CGACCAAG | 0.0998
AGTACTAG | -0.0339
TATCCGCA | 0.226
GAGAATCA | -0.137
ATTCCAGA | -0.0409
CATGGGGA | -0.272
GATGTCAA | -0.0367
GCTGAAGC | -0.163
CTCTCTTC | -0.29

Sequence | PBM E-score
AAGCTCAA | -0.0159
AACTTTAG | 0.0283
CGAGGCGA | 0.0313
AGCCCTCC | -0.0746
AATACACG | 0.126
AGGCGGAC | -0.0868
CGACATGC | 0.0981
AGTTACGA | 0.383
GACACGTC | -0.205
CTTCAAGA | -0.203
GATATTAA | 0.00575
AGCGAGCG | 0.281
GATCTTAC | 0.111
GCACGCGC | 0.00061
ACGAGATC | 0.408
AGGCTTCG | 0.0418
ACGCTCCG | 0.0452
GATCTTAA | 0.159
ATGTATAG | 0.129
CACCGGCA | -0.0457
